The other results are listed elsewhere or left out.
system: T1, C. trachomatis L2/434/Bu expressing GFP (CTL2-GFP); design: species or system HeLa; C. trachomatis total inclusion area by high-content imaging, normalised to DMSO; conditions: total inclusion area; 28.5 h, 10 µM; inhibitor
T1 construct: L2/434/Bu GFP intracellular growth in HeLa cells
In short: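 High-content imaging followed the bulk GFP/resorufin measurement: fixed, Hoechst-stained cells were scored for GFP inclusions and host nuclei per well. Total inclusion area and count served as growth proxies, nuclei number as the viability proxy. MIC calculation matched the bulk assay.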

SMILES	% of control remaining
Cc1cccc(CN2CCCC[C@H]3CN(C(=O)c4cccs4)C[C@H]32)c1 [CBK285530]	93.9549
CCCC(=O)NC(c1ccc(OC)c(OC)c1)c1c(O)ccc2ccccc12 (stereo not shown) [CBK263269]	99.2256
Cc1cc(NS(=O)(=O)c2cccc(C(F)(F)F)c2)n(C)n1 [CBK067244]	92.4038
COc1cc(Cl)cc(C2NC(=S)NC(c3ccccc3)=C2C(=O)c2ccccc2)c1OCC(=O)O (stereo not shown) [CBK266332]	107.365
CC(C)C(=O)Nc1c(-c2ccsc2)cnc2ncccc12 [CBK083714]	113.39
c1ccc(-c2nc(C3CCNCC3)n3ccncc23)cc1 [CBK035434]	117.283
CC1=CCCN(C(=O)C23CCOCC2CN(c2ncc(F)cn2)C3)C1 (stereo not shown) [CBK304263]	67.7009
COC(=O)Cn1c(CN2CCN(c3ccccc3F)CC2)nc2c1c(=O)n(C)c(=O)n2C [CBK269444]	102.51
CC(C)(O)C#Cc1ccc(C(=O)N2CCC(C(N)=O)(N3CCCCC3)CC2)cc1 [CBK264065]	111.029
O=C(O)C[C@H](CNC(=O)COc1ccc2ccc(=O)oc2c1)c1ccc(Cl)cc1 [CBK286702]	112.425
Cc1cccnc1NC(=O)c1ccc(N2CCN(C)CC2)c([N+](=O)[O-])c1 [CBK269366]	103.885
Oc1ccc(/C=N/n2c(S)nnc2C(F)(F)F)cc1 [CBK265206]	88.753
CC(C)C[C@H]([C@@H]1C[C@@H](C(C)C)C(=O)O1)N1C(=O)c2ccccc2C1=O [CBK011526]	49.8941
Cc1c(C)n(O)[n+]([O-])c1-c1ccccc1 [CBK264510N]	77.8747
CCc1nc2ccc(C(=O)N(C)CCN(C)C)cn2c1N(CC)Cc1cccc(Br)c1 [CBK146962]	86.6466
CCOC(=O)CNC1CCCCC1 [CBK023276C]	11.6076
COc1ccc(C(=O)C2CCCCC23NCCN3)cc1 (stereo not shown) [CBK023140]	13.6985
COc1ccc(-c2ccc(SCC(=O)Nc3cc(C)on3)nn2)cc1 [CBK287634]	77.9665
COc1ccnc(N2CCN(C(=O)c3cc(C(C)=O)cn3C)CC2)n1 [CBK306272]	74.7089
COCC(C)NS(=O)(=O)c1cc(Cl)ccc1OC (stereo not shown) [CBK270203]	66.443
C=C(C)CNC(=O)c1ccc(C)nc1N1CCOCC1 [CBK076389]	71.1995

SMILES	% of control remaining
CCN(CC)c1c(C)nc2ccc(C(=O)NCc3ccc(N(C)C)cc3)cn12 [CBK145961]	122.679
O=c1[nH]c2cccc3c2n1C[C@H](NCCc1ccccc1)C3 [CBK016688C]	47.8207
O=C(O)/C(=N\c1cccc2ccccc12)c1ccccc1 [CBK262224]	10.0441
CC(C)C(=O)Nc1cc2cccnc2nc1-c1ccc2c(c1)OCCCO2 [CBK073658]	102.085
O=c1ccccn1COCc1ccccc1 [CBK006438]	105.254
c1csc(C2Nc3ccccc3C3=NCCCN32)c1 (stereo not shown) [CBK284489]	90.1377
Cn1cc(-c2nc(C(=O)NCC3CCN(c4ccccc4)C3)cs2)cn1 (stereo not shown) [CBK305633]	54.9948
CSc1ncc(Cl)c(C(=O)Nc2sc3c(c2C(=O)NCC2CCCO2)CCC3)n1 (stereo not shown) [CBK268959]	72.2901
CCc1nnc(NS(=O)(=O)c2ccc(NC(=O)c3ccc([N+](=O)[O-])cc3)cc2)s1 [CBK045483]	89.1325
COc1ccccc1C(=O)NC1CN2CCC1CC2 (stereo not shown) [CBK018475C]	41.3873
O=C(CCCOc1ccccc1)N1CCN(c2cccc(Cl)c2)CC1 [CBK304354]	61.6613
COc1cc2c(cc1OC)CN(Cc1cc(=O)[nH]c(=O)[nH]1)CC2 [CBK126393]	89.0987
CCOc1ccc(S(=O)(=O)N2CCSC2c2ccc(OC)c([N+](=O)[O-])c2)cc1 (stereo not shown) [CBK263293]	74.7916
O=C1CC(NCc2ccccc2)C(=O)N1c1ccc(N2C(=O)CC(NCc3ccccc3)C2=O)cc1 (stereo not shown) [CBK263963]	121.3
OCc1ccc(OCCCOc2cccc3cccnc23)cc1 [CBK269674]	76.714
O=C(CCn1cnc2ccccc2c1=O)Nc1cccc(C(F)(F)F)c1 [CBK267687]	103.004
Oc1c(C(c2ccccc2)N2CCc3ccccc3C2)sc2ncnn12 (stereo not shown) [CBK287612]	88.8734
CCCn1cc(CN2C3CCC2CC(O)(c2ccccc2F)C3)cn1 (stereo not shown) [CBK282664]	140.997
O=c1[nH]cccc1-c1noc(-c2cnccn2)n1 [CBK288538]	92.1857
COc1ccc(C(NC(=O)C2CCN(Cc3ccc(OC)c(OC)c3)CC2)c2ccccc2C)cn1 (stereo not shown) [CBK081452T]	108.176
CC(C)(C)OC(=O)N1CCC(NCCc2ccccn2)C1 (stereo not shown) [CBK304839]	82.0902

SMILES	% of control remaining
COCCOc1ncccc1OCc1ccccc1 [CBK001456]	81.4549
O=C(COc1ccc(Cl)cc1Cl)OCCNC1=NS(=O)(=O)c2ccccc21 [CBK264905]	87.9289
CC(C)CNc1nc(-c2cccc(O)c2)cnc1N [CBK063862]	110.418
O=C1CCCN1CCCNc1nccnc1-c1ccncc1 [CBK036832]	112.136
O=C(Nc1ccc(Cn2cncn2)cc1)C1CC2C=CC1C21CC1 (stereo not shown) [CBK281399]	122.377
CCOC(=O)c1[nH]c2ccccc2c1NS(=O)(=O)Cc1ccccc1[N+](=O)[O-] [CBK047426]	81.9091
C/C(CC(=O)Nc1ccc(C)cc1)=N\NC(=O)c1cccc(O)c1 [CBK262618]	93.329
COc1ccc(/C=C(\C#N)c2nc3ccccc3n2Cc2c(C)ccc3ccccc23)cc1 [CBK262960]	66.1596
O=C(NCc1ccccc1)[C@H]1CN2CCC1C[C@@H]2Cn1cc(-c2ccc(F)cc2)nn1 (stereo partly shown) [CBK288736]	89.8939
O=C(CSc1ccccn1)Nc1ccc(CN2CCOCC2)cc1 [CBK306072]	68.466
CC(=O)c1ccc(C)cc1OC(=O)C1CCCN(S(C)(=O)=O)C1 (stereo not shown) [CBK306140]	85.4258
O=S(=O)(c1ccc(Br)cc1F)N1CCCCC1CO (stereo not shown) [CBK051302]	50.844
CC(Oc1ccc(Br)cc1)C(=O)Nc1nc2c(s1)CCC2 (stereo not shown) [CBK296723]	57.1885
CCOC(=O)c1cnn(C2CCCN(c3cccc(C#N)n3)C2)c1 (stereo not shown) [CBK306430]	49.1866
COC1C(O)C(CO)OC1n1cnc2cnc(N)nc21 (stereo not shown) [CBK201290]	105.865
CCOc1ccc(CC(=O)NN2CCOCC2)cc1OCC [CBK268150]	101.772
CCc1ccc(C(=O)Nc2ccc(NC(C)=O)cc2C(F)(F)F)cc1 [CBK295202]	97.1163
Cc1nsc(NCc2ccccc2CN2CCCC2CO)c1C#N (stereo not shown) [CBK304124]	53.2525
O=c1[nH]nc(SCc2ccccc2Cl)c(=S)[nH]1 [CBK027795]	30.9928
CC(CO)(CO)NCc1ccc(-c2ccccc2)cc1 [CBK268325C]	96.884
CN(C)CCNC(=O)CSc1ccccc1 [CBK268426]	83.2702

SMILES	% of control remaining
CCCCN(C=O)c1c(CC)nc2ccc(C(=O)N3CCN(C)CC3)cn12 [CBK145707]	105.049
COCCCNCCn1cnc2c(N)ncnc21 [CBK277059]	93.6416
Cc1cc(C)nc(Nc2n[nH]c(-c3cccnc3)n2)n1 [CBK267120]	100.716
O=C(CC(CN1CCN(c2ccccn2)CC1)C(=O)O)NC1CCCCC1 (stereo not shown) [CBK286812]	118.923
O=C(O)c1ccc(Br)c(S(=O)(=O)NCc2ccccc2)c1 [CBK263202]	106.896
Cc1cc2c(cc3c(=O)n(CC(=O)N4CCCCC4)nc(C)n32)s1 [CBK284063]	84.3755
O=[N+]([O-])c1ccc(Cc2cc[n+](-c3nc4ccccc4nc3[N-]S(=O)(=O)c3ccc([N+](=O)[O-])cc3)cc2)cc1 [CBK301201]	90.9145
CN(CC(=O)O)C(=O)c1ccc(S(=O)(=O)N2CCCCC2)cc1 [CBK265715]	94.6423
COc1ccc(C(=O)Nc2cncc(OC3CCNCC3)n2)cc1 [CBK036370T]	102.122
Cc1ccc(CN(CCCn2ccnc2)Cc2ccccn2)o1 [CBK283102]	96.7107
Cc1nc(C)n(CC2CCCN2Cc2cn3ccccc3c2C#N)n1 (stereo not shown) [CBK304006]	83.6365
CCOc1ccc(-c2cncc(N3CCC(C(=O)O)CC3)n2)cc1 [CBK065870]	143.359
CCN1CCC(CC(=O)N2CCC(c3ccccc3)C2)CC1 (stereo not shown) [CBK281958]	125.172
COCCC(=O)NC(Cc1ccsc1)c1nc(C)cs1 (stereo not shown) [CBK282830]	87.9776
O=C(O)CC1(CNC(=O)Cn2nc(-c3ccccc3)ccc2=O)CCCCC1 [CBK286866]	61.3767
Cn1c(C(=O)NCCN2CCOCC2)cc2oc(-c3ccccc3)nc2c1=O [CBK056726T]	130.336
CC(NC(=O)CC(C)n1cccn1)c1cc2cc(Cl)ccc2o1 (stereo not shown) [CBK281432]	114.253
CN(CC1CCCC1)c1nccc(N2CCN[C@H]3CS(=O)(=O)C[C@H]32)n1 [CBK307060]	106.816
Cc1nn(C)cc1C(C)NC(=O)C1(c2ccccc2F)CCOCC1 (stereo not shown) [CBK281594]	96.2742
